Results from the RNAGym collection of RNA variant scans (doi:10.7554/elife.90254).
Read counts are not given, so values of variants with three or more changes are uncertain.

B1: LINE1-mini (parent)
chain: GGCAGAGCUCAACACAGCGUGGCAAAGUGGCUGUGGCUAGACUGCC

Variants of: B1
Experiment: self-cleavage, relative activity (ratio to wild type); higher = more cleavage; in vitro, sequencing; the parent is a self-cleaving ribozyme

Row | Variant | self-cleavage
1 | G2A C8U G40U | 0.13
2 | G2A A6U C15A | 0.25
3 | G2A A11C C13A G40U | 0.03
4 | G2A A6U A12U C37G | 0.18
5 | G2A A14G A41G | 0.09
6 | G2A C8U C23A | 0.33
7 | G2A A4C C10U A14U C15U A16C U28G | 0.08
8 | G2A C8U A11G A14U G19U G21U C42A C45A C46G | 0.01
9 | G2A A6C G29A | 0.36
10 | G1U U43A C45A C46U | 0.07
11 | G1U G40U G44A C46A | 0.04
12 | G1U U9G C13U | 0.05
13 | G2A C10A A24G C45U | 0.17
14 | G2A C10G A11G G17C G29A G36U | 0.03
15 | G2A C3U A11C G21A C37U | 0.04
16 | G2A A11U A16G U32G G36U U38A | 0.02
17 | G2A A12U G17C A26C | 0.29
18 | G2A A11G C15U C45A | 0.04
19 | G2A C8G C15G G44U | 0.05
20 | G2A A14U C18U G27C U28C C46G | 0.08
21 | G2A A24G G33C | 0.04
22 | G2A C10U A11U G21A | 0.08
23 | G2A A6G A26U G27C G33C | 0.34
24 | G2A C3U A39U C42A | 0.13

Row | Variant | self-cleavage
25 | G2A A4C G7U A14G C15A C23U G29C | 0.15
26 | G2A C3G U20C U32A G33U | 0.17
27 | G2A A6G G22A A25U G35A | 0.06
28 | G2A A14C G29A U32C G40A | 0.19
29 | G2A C3A A6G C8A U32A U38A G40A | 0.13
30 | G2A A6U U20A G40U | 0.09
31 | G2A A11U A24C G44A | 0.02
32 | G2A C10A C18A G19U | 0.04
33 | G2A A26U G30C C37A U38A A41C | 0.03
34 | G2A C10U G21C A41C | 0.02
35 | G2A A11U A25U G33A C42A | 0.04
36 | G1U G36C C46U | 0.03
37 | G2A A4C C8U G21A A25C | 0.04
38 | G2A A24U A26C C45A | 0.32
39 | G2A A11C C13U G27C G33A G40C | 0.04
40 | G2A A12G C37G U38G A41C | 0.02
41 | G2A C10U G33A G36A | 0.03
42 | G1U U9G G27A U28G C37A | 0.03
43 | G2A C10A C13U | 0.02
44 | G2A A12G C45A | 0.14
45 | G2A C8G A26G G33U C37G | 0.03
46 | G1U U9A C15U G30U G33U | 0.01
47 | G2A C8A C15A U38C G40U | 0.08
48 | G2A A6C C18U U28C | 0.05

Row | Variant | self-cleavage
49 | G2A A11U G33U U38A | 0.04
50 | G2A A12C C15A G17A A24G G27U C31G | 0.01
51 | G2A A4G G22U A25U | 0.23
52 | G2A A4U G22U | 0.39
53 | G2A C10A C31G | 0.03
54 | G2A A4C A24U C37G U38G | 0.03
55 | G2A C8A C13G U20C A24U | 0.35
56 | G1U U38G C42G | 0.11
57 | G2A A25U A26U | 0.61
58 | G2A A14U C37G G44C | 0.19
59 | G2A A12U A26G U43C | 0.04
60 | G2A C10U C23U | 0.6
61 | G2A C10G C23G G27U | 0.07
62 | G2A A25G G36C | 0.03
63 | G2A C8G A14C | 0.08
64 | G2A C8A G17A | 0.16
65 | G1U U34G G35U | 0.03
66 | G2A A11U G17A C45G | 0.03
67 | G2A A11U A24U G35A | 0.01
68 | G2A C3A C8G U9C C15A A24C C31U C42U C45U | 0.04
69 | G1U U34G U38A A39C G40U | 0.01
70 | G2A C10A A39C | 0.06
71 | G2A C10G A12U G30U | 0.02
72 | G2A C10A C23A U32G | 0

Row | Variant | self-cleavage
73 | G2A A6U A12U U20A A39C | 0.23
74 | G2A C8A C23A | 0.5
75 | G2A A14G G17A A39G | 0.08
76 | G2A A6G G22A G44A | 0.27
77 | G2A A4G C37A C45G | 0.15
78 | G2A C3G G7A A12G U32A C37A U38G C46G | 0.08
79 | G2A C10A C18U C31U | 0.05
80 | G2A C10A G36C U38G | 0.04
81 | G1U G40C A41U | 0.07
82 | G2A C8U U38C C46U | 1.23
83 | G2A A12G C37G | 0.2
84 | G1U G35U G44C | 0.06
85 | G1U U9G A11U G36C A39C | 0.01
86 | G1U G35C U38C | 0.02
87 | G2A C3U C8A A16U C31U G33U | 0.75
88 | G2A A11G A24C C37G U43A | 0
89 | G2A C10U G19A G36C A41C | 0.05
90 | G2A A6C U34C | 0.31
91 | G1U G35A A39C | 0.06
92 | G2A A4U G19A A24U A26U G33C U38C | 0.05
93 | G2A C3G C13G | 0.06
94 | G2A C3U C18G | 0.11
95 | G2A C8A A26G | 0.38
96 | G2A C8A G40U A41C | 0.06

Row | Variant | self-cleavage
97 | G1U G36U U38C | 0
98 | G2A A12C G36U | 0.06
99 | G2A A4C G19U C31U | 0.03
100 | G2A A26G G27U A41G | 0.25
101 | G2A A4U C18A G22C C45U | 1.36
102 | G1U U38G G40C | 0.01
103 | G2A C8A C18U G27U G33U | 0.25
104 | G2A A14U C31G | 0.02
105 | G2A A4G C10A G22C U38A | 0.02
106 | G1U U43G C46U | 0.11
107 | G2A A4C G30C C31A U34C C37U C42G | 0.09
108 | G1U U28C G35U A41G | 0.05
109 | G2A A4U G7U C46U | 0.41
110 | G2A A16G U32C C45G | 0.16
111 | G2A A11C U38C C46G | 0.02
112 | G1U G33A G44A | 0.07
113 | G2A C10U A39G | 0.2
114 | G2A C8A C10U C23A G33U | 0.09
115 | G2A C3A G19U | 1.75
116 | G2A A11U G17U | 0.07
117 | G2A C8A C13U G29A G35C C37U C46U | 0.22
118 | G2A C10A G17A G29U A39U | 0.04
119 | G2A C3A A14U C18U G27A | 0.69
120 | G2A A6U A11C G35U | 0.02

Row | Variant | self-cleavage
121 | G2A A6G C15U G19U C23A A41C C45G | 0.04
122 | G2A A16C G29A U34C C37A A39C | 0.17
123 | G1U U9C U34A | 0.07
124 | G2A C10A G17U C31G | 0.15
125 | G1U U9C C10G C42G C45G | 0
126 | G1U U20C C23U G40U | 0.07
127 | G2A A25U G33C | 0.07
128 | G2A A11U U34G A39G | 0.01
129 | G2A A24C G30C C46A | 0.11
130 | G1U U20G C31U U38G G44A C46G | 0.08
131 | G2A C8G A12U A41U | 0.14
132 | G2A A6G C8A A12C A25C U38A G40U U43A | 0.03
133 | G1U G30C G36A C46G | 0.01
134 | G2A A26U U34G | 0.25
135 | G2A A25C G40A C45U | 0.13
136 | G2A C3U C10U A39G G44U | 0.09
137 | G2A A14U G19A A25G | 0.07
138 | G2A A4C G21C C31A C45G | 0.1
139 | G2A A14U G27C G40A C45U | 0.02
140 | G1U U9G A24U | 0.01
141 | G2A C10G G33A A41U | 0.03
142 | G2A C8A G29U | 0.78
143 | G2A C10U C13G | 0.05
144 | G2A C8A C18U C23G | 0.68

Row | Variant | self-cleavage
145 | G1U U9C A11G C13A C15G A16U G22C | 0.01
146 | G2A A4G C15A C31G G36A G40U | 0.07
147 | G2A C8G U9A C46A | 1.48
148 | G2A C10U G17U G22C G40C | 0.05
149 | G1U G36U C46A | 0.01
150 | G2A A16U G21A G27U | 0.18
151 | G2A A4C G35A U38C | 0.19
152 | G2A C3A C42U | 0.84
153 | G1U U9G C18U G35A G44U C46A | 0
154 | G2A C3G A11C G19U U43C | 0.03
155 | G2A A6C G30A C45A | 0.24
156 | G2A C10A A12U G35A | 0.05
157 | G2A A4G C23G U34C C46U | 0.24
158 | G2A A24G C42A | 0.37
159 | G2A A11C C13U | 0.07
160 | G2A A16G U38A | 0.04
161 | G2A A24U U34G A39U | 0.12
162 | G2A C10U A16G C18U G30U | 0.03
163 | G2A C3G A16G C46A | 0.02
164 | G1U G40A C45A | 0.14
165 | G2A A6G A14C A16U G35U G40U | 0.01
166 | G2A A24C C31U U34A C37G G44U | 0.02
167 | G1U U38G A39G | 0
